In the supplement of paper PMC10320760 one finds enrichment factor data, which are given here for 84 variants.

This is a noisy data set.

Sequences and labels used below:
B1: Ydj1; a variant is named by its letters at X, in order (parent)
chain: MVKETKFYDILGVPVTATDVEIKKAYRKCALKYHPDKNPSEEAAEKFKEASAAYEILSDPEKRDIYDQFGEDGLSGAGGAGGFPGGGFGFGDDIFSQFFGAGGAQRPRGPQRGKDIKHEISASLEELYKGRTAKLALNKQILCKECEGRGGKKGAVKKCTSCNGQGIKFVTRQMGPMIQRFQTECDVCHGTGDIIDPKDRCKSCNGKKVENERKILEVHVEPGMKDGQRIVFKGEADQAPDVIPGDVVFIVSERPHKSFKRDGDDLVYEAEIDLLTAIAGGEFALEHVSGDWLKVGIVPGEVIAPGMRKVIEGKGMPIPKYGGYGNLIIKFTIKFPENHFTSEENLKKLEEILPPRIVPAIPKKATVDECVLADFDPAKYNRTRASRGGANYDSDEEEQGGEGVQCXXX

Variants of B1 are the subject of the series. The series can be described thus: enrichment factor, frequency at 37 °C / frequency at 25 °C (thermotolerance selection) (ratio); higher = more growth at 37 °C, higher likelihood of farnesylation. Particulars: with Saccharomyces cerevisiae ydj1Δ (yWS304); selective temperature 37 °C; reference temperature 25 °C. The method, then:
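Pooled library of all 8,000 Ydj1-CXXX C-terminal motif variants (native CASQ replaced by C + three variable residues, one codon per amino acid) expressed from a CEN plasmid in S. cerevisiae ydj1Δ (yWS304). The library was grown in SC-Ura liquid to A600 ~2 (~8 generations) at permissive 25 °C or selective 37 °C. Reads from 8 and 7 replicates were pooled and variants counted by NGS. Enrichment factor = frequency at 37 °C / frequency at 25 °C, with a +1 correction; it reports Ydj1-dependent thermotolerance, used as a read-out of farnesylation by yeast FTase.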
Take HKD: the enrichment factor came out at 0.176. As for HKQ, the figure is 0.596; as for HKR, 0.11.

For the variant HKH, the enrichment factor was found to be 0.294.

Regarding HKS, the enrichment factor worked out at 0.144. For CKR, the enrichment factor was 0.13. As for CKQ, the figure is 1.72; as for CKG, 0.196; as for CKM, 1.11. In the case of CKS, the enrichment factor was 0.479. As for CKK, the figure is 0.0568; as for CKD, 0.132; as for CKA, 0.126. The value for CKF was 0.288. Consider CKL, for which the enrichment factor was found to be 0.223. The value for CKP was 0.137; that for CKH was 0.12; that for CKE was 0.158.

Consider CKC, for which the enrichment factor was 0.406. As for CKI, the figure is 0.47; as for CKN, 0.171; as for FKK, 0.187. The value for FKN was 1.08; that for FKA was 0.821; that for FKM was 1.33.

Turning to FKR, the enrichment factor was found to be 0.174. As for FKP, the figure is 1.13; as for FKL, 0.521.

Regarding FKE, the enrichment factor amounted to 0.0704. The value for FKQ was 1.32; that for FKD was 0.168. The value for FKH was 0.192; that for FKI was 0.819; that for FKF was 0.43.

On to FKG, for which the enrichment factor turned out to be 0.523. The value for FKS was 0.81; that for FKC was 0.332; that for VKQ was 1.7. The value for VKF was 0.431; that for VKK was 0.0945; that for VKR was 0.104. As for VKE, the figure is 0.111; as for VKM, 1.67; as for VKD, 0.176. Take VKC: the enrichment factor is 1.13. As for VKH, the figure is 0.0884; as for VKP, 0.131; as for VKN, 0.145.

Take VKG: the enrichment factor was found to be 0.148. The value for VKA was 0.275; that for VKI was 0.168. VKL: the enrichment factor stood at 0.0891. As for LIY, the figure is 3.12; as for CIY, 0.618. As for MKR, the enrichment factor was found to be 0.0511. The value for MKI was 0.157.

Turning to MKH, the enrichment factor was 0.149. The value for MKM was 0.247. The value for MKQ was 0.345; that for MKP was 0.113. Regarding MKS, the enrichment factor stood at 0.15. The value for MKF was 0.133; that for MKA was 0.0886; that for MKN was 0.178. As for MKL, the figure is 0.146.

Turning to MKG, the enrichment factor is 0.132. Consider MKC, for which the enrichment factor came to 0.118. As for MKD, the figure is 0.122; as for MKK, 0.0626. As to MKE, the enrichment factor was 0.0662. As for AIY, the enrichment factor turned out to be 0.772. On to PKH, for which the enrichment factor stood at 0.163. As for PKG, the figure is 0.24; as for PKD, 0.0521. The value for PKQ was 0.772. As for PKL, the figure is 0.151; as for PKM, 0.3. As to PKI, the enrichment factor came out at 0.211. As for PKR, the figure is 0.187; as for PKN, 0.0779. The value for PKS was 0.199; that for PKC was 0.324; that for PKF was 0.165. As to PKE, the enrichment factor stood at 0.0839.
